# According to the supplement of paper PMC8728848:
# Some of the results follow.
# B1: SefD (Salmonella enterica), Q9L6K6 (protein)
# chain: GAYIIRGQNNSAHKLRIRIGGEDWQPDNSGIGMVSHSDFTNEFNIYYFGNGDIPVDTYLISIYATEIEL
# Experiments:
# Experiment in all cases: glycan array binding signal (z-score within array); higher = stronger binding
# Details in all cases: glycan notation: IUPAC condensed, linker removed
# [1] = biological target: Fuc(a1-2)[Gal(a1-3)]Gal(b1-4)Glc
# Procedure, shortened: (§1)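 Glycan array data were curated from 3228 arrays in the Consortium for Functional Glycomics database and kept only where the protein sequence was available. Glycan names were converted to IUPAC-condensed notation, and columns mapping to the same glycan were averaged. The binding signal is a within-array Z-score, averaged across arrays of the same protein sequence at different concentrations or buffers and across linkers. Negative Z-scores can be read as non-binding.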
# [2] = biological target: Fuc(a1-2)[Gal(a1-3)]Gal(b1-4)GlcNAc
# Procedure, shortened: as §1
# [3] = biological target: Fuc(a1-2)[Gal(a1-3)]Gal(b1-4)GlcNAc(b1-2)Man(a1-3)[Fuc(a1-2)[Gal(a1-3)]Gal(b1-4)GlcNAc(b1-2)Man(a1-6)]Man(b1-4)GlcNAc(b1-4)GlcNAc
# Procedure, shortened: as §1
# [4] = biological target: Fuc(a1-2)[Gal(a1-3)]Gal(b1-4)GlcNAc(b1-2)Man(a1-3)[Fuc(a1-2)[Gal(a1-3)]Gal(b1-4)GlcNAc(b1-2)Man(a1-6)]Man(b1-4)GlcNAc(b1-4)[Fuc(a1-6)]GlcNAc
# Procedure, shortened: as §1
# [5] = biological target: Fuc(a1-2)[Gal(a1-3)]Gal(b1-4)GlcNAc(b1-3)GalNAc
# Procedure, shortened: as §1
# [6] = biological target: Fuc(a1-2)[Gal(a1-3)]Gal(b1-4)[Fuc(a1-3)]Glc
# Procedure, shortened: as §1
# [7] = biological target: Fuc(a1-2)[Gal(a1-3)]Gal(b1-4)[Fuc(a1-3)]GlcNAc
# Procedure, shortened: as §1
# [8] = biological target: Fuc(a1-2)[Gal(a1-3)]Gal(b1-4)[Fuc(a1-3)]GlcNAc(b1-3)GalNAc
# Procedure, shortened: as §1
# [9] = biological target: Fuc(a1-2)[Gal(a1-4)]Gal(b1-4)GlcNAc
# Procedure, shortened: as §1
# [10] = biological target: Fuc(a1-2)[GalNAc(a1-3)]Gal
# Procedure, shortened: as §1
# [11] = biological target: Fuc(a1-2)[GalNAc(a1-3)]Gal(b1-3)GalNAc(a1-3)[Fuc(a1-2)]Gal(b1-4)GlcNAc
# Procedure, shortened: as §1
# [12] = biological target: Fuc(a1-2)[GalNAc(a1-3)]Gal(b1-3)GlcNAc
# Procedure, shortened: as §1
# [13] = biological target: Fuc(a1-2)[GalNAc(a1-3)]Gal(b1-3)GlcNAc(b1-2)Man(a1-3)[Fuc(a1-2)[GalNAc(a1-3)]Gal(b1-3)GlcNAc(b1-2)Man(a1-6)]Man(b1-4)GlcNAc(b1-4)GlcNAc
# Procedure, shortened: as §1
# [14] = biological target: Fuc(a1-2)[GalNAc(a1-3)]Gal(b1-3)GlcNAc(b1-2)Man(a1-3)[Fuc(a1-2)[GalNAc(a1-3)]Gal(b1-3)GlcNAc(b1-2)Man(a1-6)]Man(b1-4)GlcNAc(b1-4)[Fuc(a1-6)]GlcNAc
# Procedure, shortened: as §1
# [15] = biological target: Fuc(a1-2)[GalNAc(a1-3)]Gal(b1-3)GlcNAc(b1-3)GalNAc
# Procedure, shortened: as §1
# [16] = biological target: Fuc(a1-2)[GalNAc(a1-3)]Gal(b1-4)Glc
# Procedure, shortened: as §1
# [17] = biological target: Fuc(a1-2)[GalNAc(a1-3)]Gal(b1-4)GlcNAc
# Procedure, shortened: as §1
# [18] = biological target: Fuc(a1-2)[GalNAc(a1-3)]Gal(b1-4)GlcNAc(b1-2)Man(a1-3)[Fuc(a1-2)[GalNAc(a1-3)]Gal(b1-4)GlcNAc(b1-2)Man(a1-6)]Man(b1-4)GlcNAc(b1-4)GlcNAc
# Procedure, shortened: as §1
# [19] = biological target: Fuc(a1-2)[GalNAc(a1-3)]Gal(b1-4)GlcNAc(b1-2)Man(a1-3)[Fuc(a1-2)[GalNAc(a1-3)]Gal(b1-4)GlcNAc(b1-2)Man(a1-6)]Man(b1-4)GlcNAc(b1-4)[Fuc(a1-6)]GlcNAc
# Procedure, shortened: as §1
# [20] = biological target: Fuc(a1-2)[GalNAc(a1-3)]Gal(b1-4)GlcNAc(b1-3)Gal(b1-4)GlcNAc
# Procedure, shortened: as §1
# [21] = biological target: Fuc(a1-2)[GalNAc(a1-3)]Gal(b1-4)GlcNAc(b1-3)Gal(b1-4)GlcNAc(b1-3)Gal(b1-4)GlcNAc
# Procedure, shortened: as §1
# [22] = biological target: Fuc(a1-2)[GalNAc(a1-3)]Gal(b1-4)GlcNAc(b1-3)GalNAc
# Procedure, shortened: as §1
# [23] = biological target: Fuc(a1-2)[GalNAc(a1-3)]Gal(b1-4)[Fuc(a1-3)]GlcNAc
# Procedure, shortened: as §1
# [24] = biological target: Fuc(a1-2)[GalNAc(a1-3)]Gal(b1-4)[Fuc(a1-3)]GlcNAc(b1-3)GalNAc
# Procedure, shortened: as §1
# [25] = biological target: Fuc(a1-2)[GalNAc(a1-4)]Gal(b1-4)GlcNAc
# Procedure, shortened: as §1
# [26] = biological target: Fuc(a1-2)[GalNAc(b1-3)]Gal
# Procedure, shortened: as §1
# Fuc(a1-3)GlcNAc = biological target: Fuc(a1-3)GlcNAc
# Procedure, shortened: as §1
# [27] = biological target: Fuc(a1-3)[Gal(b1-4)]Glc6S
# Procedure, shortened: as §1
# [28] = biological target: Fuc(a1-3)[Gal(b1-4)]GlcNAc
# Procedure, shortened: as §1
# [29] = biological target: Fuc(a1-3)[Gal(b1-4)]GlcNAc(b1-2)Man(a1-3)[Fuc(a1-3)[Gal(b1-4)]GlcNAc(b1-2)Man(a1-6)]Man(b1-4)GlcNAc(b1-4)GlcNAc
# Procedure, shortened: as §1
# [30] = biological target: Fuc(a1-3)[Gal(b1-4)]GlcNAc(b1-2)Man(a1-3)[Fuc(a1-3)[Gal(b1-4)]GlcNAc(b1-2)Man(a1-6)]Man(b1-4)GlcNAc(b1-4)[Fuc(a1-6)]GlcNAc
# Procedure, shortened: as §1
# [31] = biological target: Fuc(a1-3)[Gal(b1-4)]GlcNAc(b1-3)Gal(b1-3)[Fuc(a1-4)]GlcNAc
# Procedure, shortened: as §1
# [32] = biological target: Fuc(a1-3)[Gal(b1-4)]GlcNAc(b1-3)GalNAc
# Procedure, shortened: as §1
# [33] = biological target: Fuc(a1-3)[Gal(b1-4)]GlcNAc(b1-4)Gal(b1-4)[Fuc(a1-3)]GlcNAc
# Procedure, shortened: as §1
# [34] = biological target: Fuc(a1-3)[Gal(b1-4)]GlcNAc(b1-4)Gal(b1-4)[Fuc(a1-3)]GlcNAc(b1-4)Gal(b1-4)[Fuc(a1-3)]GlcNAc
# Procedure, shortened: as §1
# [35] = biological target: Fuc(a1-3)[Gal(b1-4)]GlcNAc(b1-6)GalNAc
# Procedure, shortened: as §1
# [36] = biological target: Fuc(a1-3)[Gal(b1-4)]GlcNAc(b1-6)[Gal(b1-3)GlcNAc(b1-3)]Gal(b1-4)Glc
# Procedure, shortened: as §1
# [37] = biological target: Fuc(a1-3)[Gal(b1-4)]GlcNAc(b1-6)[Neu5Ac(a2-3)Gal(b1-3)]GalNAc
# Procedure, shortened: as §1
# [38] = biological target: Fuc(a1-3)[Gal(b1-4)]GlcNAc6S
# Procedure, shortened: as §1
# [39] = biological target: Fuc(a1-3)[Gal3S(b1-4)]GlcNAc
# Procedure, shortened: as §1
# [40] = biological target: Fuc(a1-3)[Gal3S(b1-4)]GlcNAc6S
# Procedure, shortened: as §1
# [41] = biological target: Fuc(a1-3)[GalNAc(b1-4)]GlcNAc
# Procedure, shortened: as §1
# Fuc(a1-4)GlcNAc = biological target: Fuc(a1-4)GlcNAc
# Procedure, shortened: as §1
# Fuc(b1-3)GlcNAc = biological target: Fuc(b1-3)GlcNAc
# Procedure, shortened: as §1
# Gal(a1-2)Gal = biological target: Gal(a1-2)Gal
# Procedure, shortened: as §1
binder,measurement,setting,value
B1,glycan array binding signal (z-score),[1],0.131
same,glycan array binding signal (z-score),[2],-0.426
same,glycan array binding signal (z-score),[3],-0.315
same,glycan array binding signal (z-score),[4],-0.413
same,glycan array binding signal (z-score),[5],-0.227
same,glycan array binding signal (z-score),[6],0.064
same,glycan array binding signal (z-score),[7],-0.401
same,glycan array binding signal (z-score),[8],-0.404
same,glycan array binding signal (z-score),[9],0.157
same,glycan array binding signal (z-score),[10],0.347
same,glycan array binding signal (z-score),[11],-0.428
same,glycan array binding signal (z-score),[12],-0.385
same,glycan array binding signal (z-score),[13],-0.365
same,glycan array binding signal (z-score),[14],0.46
same,glycan array binding signal (z-score),[15],0.025
same,glycan array binding signal (z-score),[16],-0.362
same,glycan array binding signal (z-score),[17],-0.263
same,glycan array binding signal (z-score),[18],0.144
same,glycan array binding signal (z-score),[19],-0.277
same,glycan array binding signal (z-score),[20],-0.244
same,glycan array binding signal (z-score),[21],0.382
same,glycan array binding signal (z-score),[22],-0.427
same,glycan array binding signal (z-score),[23],-0.141
same,glycan array binding signal (z-score),[24],0.921
same,glycan array binding signal (z-score),[25],-0.114
same,glycan array binding signal (z-score),[26],-0.295
same,glycan array binding signal (z-score),Fuc(a1-3)GlcNAc,-0.283
same,glycan array binding signal (z-score),[27],-0.328
same,glycan array binding signal (z-score),[28],-0.402
same,glycan array binding signal (z-score),[29],-0.372
same,glycan array binding signal (z-score),[30],-0.349
same,glycan array binding signal (z-score),[31],0.899
same,glycan array binding signal (z-score),[32],-0.049
same,glycan array binding signal (z-score),[33],-0.335
same,glycan array binding signal (z-score),[34],-0.46
same,glycan array binding signal (z-score),[35],-0.53
same,glycan array binding signal (z-score),[36],-0.272
same,glycan array binding signal (z-score),[37],0.271
same,glycan array binding signal (z-score),[38],-0.156
same,glycan array binding signal (z-score),[39],0.454
same,glycan array binding signal (z-score),[40],0.807
same,glycan array binding signal (z-score),[41],-0.127
same,glycan array binding signal (z-score),Fuc(a1-4)GlcNAc,2.37
same,glycan array binding signal (z-score),Fuc(b1-3)GlcNAc,-0.443
same,glycan array binding signal (z-score),Gal(a1-2)Gal,0.679
